Data taken from PubChem BioAssay AID1159614 (National Center for Advancing Translational Sciences (NCATS), 2016).
Screen size: about 45,000 compounds; about 65 (0.1%) were called active. Calls follow the shape of the dose curve; as a rule, active = well fitted activation curve with a large enough effect; inconclusive = small, poorly fitted or top-dose-only effect; inactive = no such curve, though single readings can be large or run the other way. This is one part of the list.

molecular target: Galactocerebrosidase (Homo sapiens) (UniProt P54803); assay: A Novel Cell-Based Assay to Identify Small Molecules for B -Galactocerebrosidase; conditions: 145M-Twi-hGALC-G270D cells (Twitcher mouse brain line with human GALC G270D), HMU-beta-Gal fluorescence, 48 h; series mostly up to 57.5 µM; activation: at the top concentration; also: 0% is about no effect; nearly all actives have a fitted effect of over 65% in size
UniProt P54803, sequence (P54803 whole entry, looked up): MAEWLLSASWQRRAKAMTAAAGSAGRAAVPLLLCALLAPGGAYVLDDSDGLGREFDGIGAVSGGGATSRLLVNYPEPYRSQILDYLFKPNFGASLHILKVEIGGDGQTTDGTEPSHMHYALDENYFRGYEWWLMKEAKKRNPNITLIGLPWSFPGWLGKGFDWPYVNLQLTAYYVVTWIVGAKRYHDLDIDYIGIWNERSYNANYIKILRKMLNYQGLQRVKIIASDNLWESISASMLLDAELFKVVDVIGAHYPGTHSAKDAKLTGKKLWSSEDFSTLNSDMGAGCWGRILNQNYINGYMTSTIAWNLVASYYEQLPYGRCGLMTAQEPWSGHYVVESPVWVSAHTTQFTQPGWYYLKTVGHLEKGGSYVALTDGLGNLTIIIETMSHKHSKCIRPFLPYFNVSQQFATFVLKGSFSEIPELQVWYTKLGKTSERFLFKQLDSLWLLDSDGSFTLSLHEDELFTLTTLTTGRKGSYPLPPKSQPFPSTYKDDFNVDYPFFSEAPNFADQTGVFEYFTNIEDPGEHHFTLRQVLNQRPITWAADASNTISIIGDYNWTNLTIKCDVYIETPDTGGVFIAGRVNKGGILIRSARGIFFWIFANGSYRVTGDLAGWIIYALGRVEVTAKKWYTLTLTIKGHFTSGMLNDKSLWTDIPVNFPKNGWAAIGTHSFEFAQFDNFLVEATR
Summary of the method: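 Live 145M-Twi cells (Twitcher mouse brain-derived, GALC-null) stably expressing human GALC-G270D, with a wild-type GALC line, were compound-treated. Residual GALC activity was then read as fluorescence from 0.1 mM final HMU-β-gal at pH 5.2; higher signal means activation.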

activation, inactive:
O=C(c1ccc2c(c1)N(Cc1ccc(F)cc1)C(=O)c1ccccc1S2(=O)=O)N1CCN(Cc2ccccc2)CC1 -34.8%, Cc1ccc(-c2ccccc2C#N)cc1 -12.3%, CCc1ccccc1NC(=O)Nc1cc(C(=O)NCc2ccccc2OC)ccc1N1CCCC1 -10%, COc1ccc2c(c1)c(=O)c(S(=O)(=O)c1ccccc1)cn2CC(=O)Nc1ccc2c(c1)OCO2 -10.5%, CCCN(C(=O)Cn1ncc2c([nH]c3ccccc32)c1=O)c1ccc(F)cc1 7.3%, CC(=O)c1cccc(NC(=O)CCCSc2nc(-c3ccco3)cc(C(F)(F)F)n2)c1 -20.1%, COc1ccc(CCNC(=O)CCn2c(=O)c3ccccc3n(CC(=O)Nc3cc(Cl)ccc3C)c2=O)cc1OC -11.2%, CCOC(=O)C1CCCN(C(=O)c2ccc3c(c2)N(Cc2ccccc2F)C(=O)c2ccccc2S3=O)C1 (stereo unspecified) -9.04%, Cc1ccc(NC(=O)c2ccc(CNS(=O)(=O)c3ccc4c(c3)C(C)(C)C(=O)N4C)cc2)cc1 -31.8%, CN(C)CCNC(=O)C(=O)NCC(c1cccnc1)N1CCN(c2ccccc2)CC1 (stereo unspecified) -7.78%, COc1cccc(-c2nc(SCC(=O)NCC3CCCO3)c(-c3ccc(Cl)cc3)[nH]2)c1 (stereo unspecified) -13.5%, COc1ccc(NC(=O)CN2C(=O)C(c3ccc(C)cc3)=NC23CCCCCC3)cc1Cl -0.207%, CCOC(=O)C(C)(C)Oc1ccc(Cl)cc1 -38.1%, CC(=O)N1CCc2cc(S(=O)(=O)NC(Cc3ccccc3)C(=O)Nc3ccc(C)cc3C)ccc21 (stereo unspecified) -6.32%, O=C(CSc1nc2ccsc2c(=O)n1Cc1ccccc1F)NCc1ccccc1Cl 15.2%, Clc1cccc(-n2ncc3c(Nc4ccc5c(c4)OCCO5)ncnc32)c1 -17.4%, Cc1ccc(C)c(Cn2c(=O)n(-c3ccc(F)cc3)c(=O)c3sc4ccccc4c32)c1 -13.4%, COc1ccc(N2CCN(C(=O)Cn3c(-c4cccs4)cc4ccccc43)CC2)cc1 -5.19%, CCOC(=O)c1cnc2c(C)cc(C)cc2c1Nc1ccccc1OCC -16.7%, COc1ccc(C(=O)Nc2ccc3oc(-c4cc(Cl)ccc4Cl)nc3c2)cc1Br -7.6%, Cc1nn2c(-c3ccco3)ccnc2c1-c1ccc(Cl)cc1 -12.9%, Cc1ccc(C(=O)Nc2ccc3oc(-c4cc(Br)ccc4Cl)nc3c2)cc1 -15.8%, CCC(=O)N1CCCc2cc(S(=O)(=O)N3CCC(C(=O)Nc4cccc(Cl)c4)CC3)ccc21 -39.4%, COc1cc(OC)c(N(C)C(=O)CSc2c3c(nc4ccc(Cl)cc24)CCCC3)cc1Cl 2.42%, O=C(Nc1cccc(Cl)c1Cl)c1cc(S(=O)(=O)N2CCCc3ccccc32)ccc1F -3.66%, COc1ccc(CNC(=O)CSc2ncc3c(n2)-c2cc(Cl)ccc2N(C)S3(=O)=O)cc1 -17.5%, CC(C)c1cnc2c(c1SCC(=O)Nc1ccc(C(N)=O)cc1)c(=O)n(C)c(=O)n2C -15.3%, CCOC(=O)Cn1c(-c2cccs2)cc2cc(Cl)ccc21 -5.2%, O=C1CCCc2c(O)cccc21 -6.91%, COC(=O)c1c(NC(=O)/C=C/c2ccc(OC)cc2)sc2c1CCC2 -2.53%, COc1ccc(CCNC(=O)c2ccc3c(c2)N(Cc2cccc(Cl)c2)C(=O)c2ccccc2S3=O)cc1OC (stereo unspecified) -10.8%, Cc1ccc(NC(=O)Nc2cccs2)c(C)c1 -15.6%, CCN1C(=O)c2ccccc2Sc2ccc(NC(=O)c3cccc(C)c3)cc21 -14.3%, CCOC(=O)c1cc(OC(=O)c2ccccc2OC)n(-c2ccccc2)n1 -16.2%, COc1ccc(N(C(=O)c2cccc(C)c2)S(=O)(=O)c2ccc3c(c2)n(C)c(=O)n3C)cc1 -18.4%, CN(CCCNC(=O)c1cc2c(=O)n(C)c3ccccc3c2s1)Cc1ccccc1 -9.65%, O=C(Cn1c(=O)n(-c2ccccc2)c(=O)c2ccc(C(=O)NCc3ccc4c(c3)OCO4)cc21)Nc1ccc(F)c(Cl)c1 -12.5%, CCc1ccc(N(CC)C(=O)c2sc3nc4n(c(=O)c3c2C)CCCC4)cc1 -11.4%, CCC(C)NC(=O)CSCc1nc(-c2ccc(C)cc2)oc1C (stereo unspecified) -12.8%, O=C(c1ccccc1Br)N(Cc1ccccc1F)C1CCS(=O)(=O)C1 (stereo unspecified) -20%, CN1CCN(C(=O)c2ccc3c(c2)N(Cc2ccc(Cl)cc2)C(=O)c2ccccc2S3(=O)=O)CC1 -6.43%, COc1ccc(OCC(=O)N(Cc2ccc(C)o2)C2CCS(=O)(=O)C2)cc1 (stereo unspecified) -16.1%, CCOc1ccc(CCNC(=O)c2ccc(-c3nc(CSc4ccccc4)c(C)o3)cc2)cc1 -15.1%, Cc1cccc(CC(=O)NCCc2sc3nc(-c4ccc(F)cc4)nn3c2C)c1 -12.7%, O=C(Cn1c(=O)ccc2cc(S(=O)(=O)N3CCCC3)ccc21)Nc1ccc(Cl)cc1 -9.18%, Cc1ccc(Cl)cc1NC(=O)CSCc1cnn(-c2ccccc2)c1-n1cccc1 -11.8%, Cn1nnnc1SCCCNCc1ccccc1OCc1ccc(F)cc1 -11%, Cc1cccc(NS(=O)(=O)c2ccc3c(c2)CCN3C(=O)C2CC2)c1C -1.29%, NS(=O)(=O)c1cc(-c2nn[nH]n2)c(NCc2cccs2)cc1Cl -7.86%, COc1ccccc1NC(=O)CN1C(=O)CCSc2ccccc21 -29.6%, O=C(Cn1ncc2c3ccccc3n(Cc3cccc(Cl)c3)c2c1=O)NCCC1=CCCCC1 -9%, Cc1ccccc1Cn1c(=O)n(CCCCCC(=O)NCc2ccc3c(c2)OCO3)c(=O)c2sccc21 -6.83%, CO[C@@]1(NC(=O)CSCC#N)C(=O)N2C(C(=O)O)=C(CSc3nnnn3C)CS[C@@H]21 9.38%, CCOc1ccc(C(=O)NCCc2sc(-c3ccc(F)cc3)nc2C)cc1 -10.2%, COc1ccc(Nc2ncc(C(=O)N3CCN(c4ccccc4OC)CC3)c3ccccc23)cc1 -31.6%, CCOC(=O)c1ccc(NC(=O)CN2C(=O)c3cccnc3Sc3ccccc32)cc1 -8.37%, Cn1c(SCc2ccccc2Cl)nc(=O)c2c1NC(=O)CC2c1cc(F)ccc1F (stereo unspecified) -7.33%, CCOc1ccc(NC(=O)Nc2c[nH]c(=O)[nH]c2=O)cc1 -13.3%, CCN(CC)c1ccc(CNS(=O)(=O)c2cc3c(cc2C)NC(=O)CO3)cc1 -12%, COc1ccc(NC(=O)CSc2ncc3c(n2)-c2ccccc2N(C)S3(=O)=O)cc1Cl -5.07%, CCOc1ccccc1CNC(=O)c1ccc2c(c1)nc1n2CCC(C)C1 (stereo unspecified) -3.92%, CCOC(=O)c1ccccc1NC(=O)Cn1c(=O)n(-c2ccc(CC)cc2)c(=O)c2c(C)c(C(=O)N(C)C)sc21 -5.13%, O=C(Cn1c(SCC(=O)Nc2ccc(F)cc2)nc2ccccc21)NCc1ccc(Cl)cc1 -11.4%, Nc1ncc(S(=O)(=O)Nc2ccc(OC(F)(F)F)cc2)cn1 -4.92%, CC(C)Sc1nc2sc3c(c2c(=O)n1-c1ccccc1)CCCC3 -24.9%, CC(=O)c1ccc(N2C(=O)Nc3ccccc3S2(=O)=O)cc1 -4.3%, Cc1ccc(N2CC(NC(=O)c3ccccc3Br)CC2=O)cc1 (stereo unspecified) -3.68%, O=C(Nc1ccc(F)c(Cl)c1)C1CCN(S(=O)(=O)c2ccc3c(c2)CCCN3C(=O)C2CCC2)CC1 14.3%, Cc1ccc(CSc2cn(CCNC(=O)c3cccs3)c3ccccc23)cc1 -39.6%, CCOc1ccc(NC(=O)c2nnn(-c3ccc(F)c(Cl)c3)c2C)cc1 -21.3%, CC1=C(C(=O)Nc2ccccc2)C(c2ccccn2)n2nc(SCc3ccccc3Cl)nc2N1 (stereo unspecified) 13.2%, Cc1ccccc1NC(=O)Cn1cc(S(=O)(=O)N2CCCC2)c(S(=O)(=O)N2CCCC2)c1 -11.6%, COC(=O)c1ccc(Oc2nc3c(c(=O)n(C)c(=O)n3C)n2Cc2ccc(Cl)c(Cl)c2)cc1 -14%, CCC(=O)Nc1cccc(OCc2cc(=O)n3cc(C)ccc3n2)c1 -27.6%, O=C(Nc1nnc(S(=O)(=O)N2CCCCCC2)s1)c1ccccc1 -17.9%, COc1ccccc1N(CC(=O)Nc1cc(C)cc(C)c1)S(C)(=O)=O 19.2%, Cc1cc(NCc2ccc(Cl)cc2)n2cnnc2n1 -11.2%, CCc1ccc(NS(=O)(=O)c2c(-c3ccccc3)csc2C(=O)OC)cc1 -7.07%, CCc1cccc(NC(=O)Cn2ccn3nc(-c4ccc(OC)c(OC)c4)cc3c2=O)c1 -21.9%, Cc1cccc(-c2noc(-c3ccc(NCc4cccnc4)c([N+](=O)[O-])c3)n2)c1 -18.5%, CN(Cc1ccco1)S(=O)(=O)c1nnc(NC(=O)c2ccccc2)s1 -18.9%, Cc1ccc(OCc2cc(=O)n3c4c(sc3n2)CCCC4)cc1C -1.3%, COc1cc(OC)cc(C(=O)Nc2ccc3c(c2)n(C)c(=O)c(=O)n3C)c1 2.53%, O=C(NCc1ccccc1Cl)c1ccc(NC(=O)N2CCSc3ccccc32)cc1 -6.22%, COc1ccc(S(=O)(=O)N(CC(=O)Nc2ccc3c(c2)OCO3)c2ccc(C)cc2)cc1 -7.68%, COc1ccc(OC)c(NC(=O)c2c(NCc3ccc(N(C)C)cc3)sc3c2CCCC3)c1 -8.05%, COc1ccc(NC(=O)c2oc3ccccc3c2NC(=O)C23CC4CC(CC(C4)C2)C3)cc1 -14.7%, CCc1ccc2occ(CC(=O)Nc3sc4c(c3C(=O)NCCOC)CCCC4)c2c1 -9.45%, N=C(N)c1ccc(OCCCOc2ccc(C(=N)N)cc2)cc1 -9.25%, Cc1ccc(S(=O)(=O)C(CNC(=O)c2ccc(C(F)(F)F)cc2)c2ccco2)cc1 (stereo unspecified) 9.38%, Cc1noc(-c2ccc(-c3noc(-c4cccc(Cl)c4)n3)cc2)n1 -22.1%, Cc1nc2nc(SCC(=O)NC3CCC(C)CC3)nn2c(C)c1Cc1ccccc1Cl (stereo unspecified) -12.8%, O=C(Cn1cc(S(=O)(=O)c2ccccc2)c(=O)c2cc3c(cc21)OCO3)Nc1ccccc1 3.29%, Cn1cc(S(=O)(=O)N2CCCCC2)cc1C(=O)Nc1ccc(OC(F)(F)F)cc1 21.7%, O=C(NCCCc1ccccc1)c1nn(-c2ccccc2)nc1CO -19.7%, CCc1ccc2oc(-c3ccc(C)c(NC(=O)c4ccc(C#N)cc4F)c3)nc2c1 7.87%
